From PubChem BioAssay AID1030 (National Center for Advancing Translational Sciences (NCATS), 2008)
In all, about 220,000 compounds went through this assay and about 16,000 (7.3%) were called active. Inconclusive results, whose numbers are uncertain, are shown with a selection of clear calls. The call rests on the fitted dose curve; in most records, active means well fitted inhibition curve with a large enough effect (not every such curve was filed as active); inconclusive means small, poorly fitted or top-dose-only effect, or another doubt; inactive means no such curve, though single readings can be large or run the other way. Potencies beside an inconclusive call are fits to weak or partial responses and may not hold up.

What follows are compounds tested against Aldehyde dehydrogenase 1A1 (Homo sapiens) (UniProt P00352) (assay: qHTS Assay for Inhibitors of Aldehyde Dehydrogenase 1 (ALDH1A1)). Details: Purified ALDH1A1, NADH fluorescence, propionaldehyde substrate; series mostly up to 75.3 µM.
Potency means the concentration at half of the fitted maximal effect; tags describe the fitted curve by direction and shape.

Sequence of UniProt P00352 (P00352 whole entry, looked up): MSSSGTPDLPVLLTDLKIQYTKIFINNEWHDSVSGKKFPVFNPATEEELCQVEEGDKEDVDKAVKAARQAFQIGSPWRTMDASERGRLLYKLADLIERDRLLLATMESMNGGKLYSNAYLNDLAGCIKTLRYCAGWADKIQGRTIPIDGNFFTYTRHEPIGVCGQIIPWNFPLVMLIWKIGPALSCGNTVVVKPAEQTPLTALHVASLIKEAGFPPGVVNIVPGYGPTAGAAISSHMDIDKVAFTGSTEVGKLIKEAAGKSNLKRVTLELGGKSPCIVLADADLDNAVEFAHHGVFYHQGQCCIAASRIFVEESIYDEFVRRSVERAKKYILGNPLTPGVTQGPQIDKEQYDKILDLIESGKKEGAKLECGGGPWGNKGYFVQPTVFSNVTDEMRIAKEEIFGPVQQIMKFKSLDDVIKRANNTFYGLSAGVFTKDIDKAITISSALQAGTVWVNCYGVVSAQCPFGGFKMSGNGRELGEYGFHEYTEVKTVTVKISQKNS

Potency, active:
CC1CC2=C(NC(=S)NC2c2ccccc2F)/C(=C/c2ccccc2F)C1 (configuration not stated) 0.562 µM
CC1=C(C(=O)OCC(C)C)C(c2cccs2)NC(=S)N1 (configuration not stated) 0.126 µM
N#C/C(=C\c1ccc(C#N)cc1)C(=O)N1CCCC1 7.94 µM

Potency, inconclusive:
COc1ccccc1C(=O)Nc1nc(-c2ccc(S(=O)(=O)N3CCOCC3)cc2)cs1 25.1 µM [inhibitor, partial curve]
Cc1ccc(OCc2nnc(SCC(=O)c3ccccc3)n2-c2ccccc2)cc1 39.8 µM [inhibitor, single point]
COC(=O)CN1C(=S)N(c2ccc(OC)cc2)C(=O)C1CC(=O)Nc1ccc(F)cc1 (configuration not stated) 28.2 µM [inhibitor, partial curve]
CC(C)C(NC(=S)NCc1ccccc1)C(=O)O (configuration not stated) 39.8 µM [inhibitor, single point]
NC(=O)CNC1CC(=O)N(CCc2ccccc2)C1=O (configuration not stated) 35.5 µM [inhibitor, single point]
COc1ccc(N=C2SC(CC(=O)Nc3ccccc3)C(=O)N2Cc2ccco2)cc1 (configuration not stated) 20 µM [inhibitor, partial curve]
O=C(CSc1n[nH]c(-c2ccncc2)n1)NC1CCS(=O)(=O)C1 (configuration not stated) 35.5 µM [inhibitor, single point]
COc1ccc(/C=N/NC(=O)CN2CCN(Cc3ccccc3)CC2)cc1Br 39.8 µM [inhibitor, single point]

Potency, inactive:
COc1ccc(CCNC(=O)CSc2nnc(Cn3c(=O)sc4ccccc43)n2C)cc1OC
CNc1ncnc2c1ncn2[C@@H]1O[C@H](COP(=O)(O)O)[C@@H](O)[C@H]1O
CCC/C=C(\CCC)C(NC(=O)C(C)(C)C)c1ccc(C(=O)OC)cc1 (configuration not stated)
CCOC(=O)C1=C(C)N=c2s/c(=C\c3ccc(OC(C)=O)c(OCC)c3)c(=O)n2C1/C=C/c1ccccc1 (configuration not stated)
Clc1cccc(-c2nc(NCC3CCCO3)c3ccccc3n2)c1 (configuration not stated)
Cc1ccc(S(=O)(=O)NC(=O)c2cccn2C)cc1
CCOc1ccc(C2C(C(=O)c3ccco3)=C(O)C(=O)N2Cc2cccnc2)cc1 (configuration not stated)
Cc1ccccc1C(=O)NC(CC(C)C)C(=O)OCC(=O)c1c(N)n(C)c(=O)n(C)c1=O (configuration not stated)
Cc1cccc(C)c1NC1=NC(=S)N(c2ccc(C(=O)O)cc2)C12CCCCC2
O=c1[nH]cnc2c1nc(Cl)n2C1OC(CO)C(O)C1O (configuration not stated)
COCCNC(=O)CN(C(=O)Cn1nnc2ccccc21)c1cc(C)cc(C)c1
